In the supplement of paper PMC10126150:
Sequences with one replicate were seen in a single cluster, so their values are uncertain.

Test system: ATP
Assay: switch fluorescence ratio, 500 uM ATP over buffer (Cy3 cluster intensity, sum of 5 cycles each) (fold (ratio)); higher = stronger signal-on switching upon ATP binding; sequences stand for … in TCGTCGGCAGCGTCAGATGTGTATAAGAGACAGTTTTTTTTTTTTTTTTTTTTTTTTT…TC
Conditions: aptamer strand: ATP DNA aptamer (quencher-CACCTGGGGGAGTATTGCGGAGGAAGG + anchor), 100 nM annealed; ATP concentration: 500 uM; one replicate
In short: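 Per cluster, summed Cy3 intensity from the target cycles was divided by that from the buffer cycles to give the fluorescence ratio, then averaged per switch-domain sequence. Clusters outside 100-1000 RFU were excluded. The Cy3-labelled switching-strand clusters, on a modified Illumina MiSeq flow-cell, were annealed to 100 nM quencher-labelled ATP aptamer and imaged in selection buffer, then after 15 min with 500 uM ATP at 22 °C, for five cycles with NaOH stripping and re-annealing between them.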
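Also: ATP exposure 15 min at 22 °C before imaging.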

CGCCGATAGA was tested, and the switch fluorescence ratio was 1.04.
CTTTATGATA was tested, and the switch fluorescence ratio was 1.03.
TTATATTCCG gave a switch fluorescence ratio of 0.988.
For AACGAATTCC, the switch fluorescence ratio was 1.02.
For AGAACGTCCC, the switch fluorescence ratio was 1.11.
For ACTATTTACC, the switch fluorescence ratio was 1.13.
In the case of GCGTTGAAAC, the switch fluorescence ratio is reported as 0.968.
Sequence CTGACATAAT has a switch fluorescence ratio of 1.19.
ATATATTGAA was tested, and the switch fluorescence ratio was 0.979.
GGGACTCTTG gave a switch fluorescence ratio of 0.985.
ACCTTCTGAC gave a switch fluorescence ratio of 1.14.
With TGGCGAGGGT the switch fluorescence ratio was 0.979.
Work on TGCGTGGTAA yielded a switch fluorescence ratio of 1.03.
Work on TGAACCGAAC yielded a switch fluorescence ratio of 2.47.
With TACCGGGGA the switch fluorescence ratio was 1.
For AAGCTCCCTG, the switch fluorescence ratio was 1.04.
CGTCAAAATG showed a switch fluorescence ratio of 1.04.
AGCTATCGAT gave a switch fluorescence ratio of 0.944.
CTGGTCCGTC showed a switch fluorescence ratio of 0.998.
In the case of GTCAGTAGGT, the switch fluorescence ratio is reported as 0.972.
CTACGAGTTC showed a switch fluorescence ratio of 1.09.
Sequence TACTGGCTAT has a switch fluorescence ratio of 1.01.
Sequence AAATCATTT has a switch fluorescence ratio of 0.993.
Work on ACAGTATTCA yielded a switch fluorescence ratio of 1.08.
GGATGGGTT gave a switch fluorescence ratio of 1.03.
Sequence ATTCAATGG has a switch fluorescence ratio of 1.05.
For AAGGGTTCCA, the switch fluorescence ratio was 1.02.
Sequence TTCATTTCTT has a switch fluorescence ratio of 0.999.
Work on CGTAATTTTT yielded a switch fluorescence ratio of 1.01.
In the case of TAAGTTGGCC, the switch fluorescence ratio is reported as 0.972.
GCGAATCGAC showed a switch fluorescence ratio of 1.15.
TGTTTCAGAC was tested, and the switch fluorescence ratio was 0.956.
Work on TACGTCCGAA yielded a switch fluorescence ratio of 1.07.
With TAAGTGTACC the switch fluorescence ratio was 1.1.
For GGCACCACTA, the switch fluorescence ratio was 1.12.
CCACTATT was tested, and the switch fluorescence ratio was 1.07.
TACGAGTTAG was tested, and the switch fluorescence ratio was 1.01.
TTCTGAGTGT gave a switch fluorescence ratio of 0.972.
With ATTTCAGGCA the switch fluorescence ratio was 0.961.
Sequence CCTCTTGGA has a switch fluorescence ratio of 1.04.
In the case of TCAAGAGGGA, the switch fluorescence ratio is reported as 0.987.
GGCAGTACGC gave a switch fluorescence ratio of 1.17.
For CCTTCTTCAA, the switch fluorescence ratio was 1.82.
Sequence TGGAATACGG has a switch fluorescence ratio of 1.3.
Work on TACCGCGTTC yielded a switch fluorescence ratio of 1.5.
In the case of TGCGAGTAGC, the switch fluorescence ratio is reported as 0.984.
For ATGAGCGGCT, the switch fluorescence ratio was 1.09.
AGCGAGTCGG gave a switch fluorescence ratio of 1.03.
TCGCTGGCGG gave a switch fluorescence ratio of 0.994.
AGATGTTTG showed a switch fluorescence ratio of 1.04.
TTTGTGAGCT was tested, and the switch fluorescence ratio was 0.966.
GCAGGGCATC showed a switch fluorescence ratio of 0.992.
CTGTCGAACT was tested, and the switch fluorescence ratio was 1.03.
Work on AAGTCACA yielded a switch fluorescence ratio of 1.06.
Work on GCAGTCATTC yielded a switch fluorescence ratio of 1.03.
Sequence AAAGTTAGAC has a switch fluorescence ratio of 1.04.
With AAATTTGGA the switch fluorescence ratio was 0.973.
In the case of TAAAAAAAC, the switch fluorescence ratio is reported as 1.13.
Work on TTCCAGGAGG yielded a switch fluorescence ratio of 1.04.
GACGTCTGAT was tested, and the switch fluorescence ratio was 0.977.
In the case of TCTTTCCGAT, the switch fluorescence ratio is reported as 1.11.
CGAAATAAAC showed a switch fluorescence ratio of 1.32.
With ATATGCTAGG the switch fluorescence ratio was 0.968.
Sequence AAGTGTATCT has a switch fluorescence ratio of 1.03.
For GCCGAGTGTT, the switch fluorescence ratio was 0.98.
CTGTGAAGGG gave a switch fluorescence ratio of 0.962.
GCTCCCCATG showed a switch fluorescence ratio of 1.08.
Work on GCCGACGGCT yielded a switch fluorescence ratio of 0.987.
GGCGCAGTAA showed a switch fluorescence ratio of 1.22.
CGAGTGTGGT was tested, and the switch fluorescence ratio was 0.978.
GGCGATATGC showed a switch fluorescence ratio of 1.01.
TCGGGTTTCA showed a switch fluorescence ratio of 0.991.
GAAATAGAGC gave a switch fluorescence ratio of 0.932.
Work on ACTGGTGG yielded a switch fluorescence ratio of 0.938.
GTGGAAGCTA showed a switch fluorescence ratio of 0.992.
For TTACGGCCTG, the switch fluorescence ratio was 0.985.
TTATATTTT was tested, and the switch fluorescence ratio was 0.97.
Sequence CTGGGTGTTT has a switch fluorescence ratio of 1.02.
ATTTCGGAA gave a switch fluorescence ratio of 1.05.
In the case of GGTTGACACA, the switch fluorescence ratio is reported as 1.02.
For AAGCGGGCTA, the switch fluorescence ratio was 0.966.
Sequence TAGTGCGGTG has a switch fluorescence ratio of 0.987.
Work on GCCGTTGGCA yielded a switch fluorescence ratio of 1.01.
AGTTTTCCCG showed a switch fluorescence ratio of 0.969.
Work on CACTCTGGTG yielded a switch fluorescence ratio of 1.27.
For ACATACCTGA, the switch fluorescence ratio was 1.21.
CAAGCTTAAT was tested, and the switch fluorescence ratio was 1.03.
With GGGAAGTAGT the switch fluorescence ratio was 1.03.
In the case of TATTGAGTA, the switch fluorescence ratio is reported as 0.983.
With GGTGTATAG the switch fluorescence ratio was 1.05.
With AGTAAGATA the switch fluorescence ratio was 1.02.
TGACAGAAT was tested, and the switch fluorescence ratio was 1.01.
With CAAAATTTCT the switch fluorescence ratio was 1.
TCTGGGGGA showed a switch fluorescence ratio of 0.993.
Work on TTTCCAAGA yielded a switch fluorescence ratio of 1.36.
For TACTAACCTG, the switch fluorescence ratio was 1.03.
With TATGTATTGA the switch fluorescence ratio was 1.02.
AACCGCGACT gave a switch fluorescence ratio of 1.38.
With TTGTTAGGGA the switch fluorescence ratio was 0.988.
GCTAGTCTTC gave a switch fluorescence ratio of 0.955.
ACTTTCGGAT was tested, and the switch fluorescence ratio was 0.943.
With CCAACGCTTG the switch fluorescence ratio was 1.6.
Sequence ATTATTCTT has a switch fluorescence ratio of 1.01.
Sequence ATTAAGTACT has a switch fluorescence ratio of 1.24.
CCATCCGGAT was tested, and the switch fluorescence ratio was 1.14.
AGATCCGTTT gave a switch fluorescence ratio of 0.985.
In the case of GCAGCGTCGG, the switch fluorescence ratio is reported as 1.05.
GTGCACAAGG gave a switch fluorescence ratio of 0.983.
Work on GGCAACTCGC yielded a switch fluorescence ratio of 1.01.
With GGGACCAGGC the switch fluorescence ratio was 1.07.
Sequence GGATCATATA has a switch fluorescence ratio of 1.01.
TTTTATGATG showed a switch fluorescence ratio of 0.973.
For CGTTCTTTTT, the switch fluorescence ratio was 0.983.
CTGCAACATT was tested, and the switch fluorescence ratio was 1.14.
Work on TAAGTTTTCT yielded a switch fluorescence ratio of 0.934.
Sequence TGTTCTATTG has a switch fluorescence ratio of 0.966.
Sequence ACCTGAGGG has a switch fluorescence ratio of 1.
For TTAGCGGTTC, the switch fluorescence ratio was 1.06.
CAGTGGTCCC gave a switch fluorescence ratio of 0.973.
In the case of ATCGTTGGGT, the switch fluorescence ratio is reported as 0.983.
For ATTTGAGTG, the switch fluorescence ratio was 1.02.
In the case of TCCGCTTTCT, the switch fluorescence ratio is reported as 2.65.
Work on TGATGGAGCC yielded a switch fluorescence ratio of 1.04.
For TACAAGAACC, the switch fluorescence ratio was 1.32.
In the case of GACGAGTATA, the switch fluorescence ratio is reported as 1.07.
For CACAAGGGTG, the switch fluorescence ratio was 1.2.
In the case of CTCCCATGCG, the switch fluorescence ratio is reported as 1.53.
With ATCCATCGAT the switch fluorescence ratio was 1.01.
Work on ATTCTGTGAG yielded a switch fluorescence ratio of 0.997.
TTGAAGATTT gave a switch fluorescence ratio of 0.986.
In the case of TCCGATAATA, the switch fluorescence ratio is reported as 1.62.
ATTTGCCAAG was tested, and the switch fluorescence ratio was 0.997.
For ATCGGCAAAT, the switch fluorescence ratio was 1.18.
AACAGCTGAT was tested, and the switch fluorescence ratio was 1.04.
Work on GTTGCCGTAA yielded a switch fluorescence ratio of 0.975.
For GGGAAAGTTG, the switch fluorescence ratio was 0.95.
In the case of GGACACGCTT, the switch fluorescence ratio is reported as 1.01.
Sequence GATGGTTCCG has a switch fluorescence ratio of 0.979.
Sequence CGGTGCAATG has a switch fluorescence ratio of 1.76.
AGAAAGAATA showed a switch fluorescence ratio of 0.981.
ACTATGAGTG was tested, and the switch fluorescence ratio was 1.05.
For TAGGTTTCCG, the switch fluorescence ratio was 1.01.
With ATCAGACGGT the switch fluorescence ratio was 1.02.
GCACGATCGG was tested, and the switch fluorescence ratio was 1.05.
Work on CAACAGGTAA yielded a switch fluorescence ratio of 1.01.
GGTCGAGTGC gave a switch fluorescence ratio of 0.983.
Work on AAAGCGAGGC yielded a switch fluorescence ratio of 1.14.
CGCTCTCCTG was tested, and the switch fluorescence ratio was 1.21.
For GGAAGCAACA, the switch fluorescence ratio was 1.16.
GTTGCGGAAA showed a switch fluorescence ratio of 1.
In the case of TATTTCGATC, the switch fluorescence ratio is reported as 0.998.
Sequence TGAACCTCCT has a switch fluorescence ratio of 1.47.
AACCTGGGAA was tested, and the switch fluorescence ratio was 1.01.
AGTTGCTATT showed a switch fluorescence ratio of 0.99.
GCGGTAATGG was tested, and the switch fluorescence ratio was 1.03.
Work on TAGGATAAAG yielded a switch fluorescence ratio of 0.988.
With CTGCATGTTC the switch fluorescence ratio was 1.84.
TAATTACCTT was tested, and the switch fluorescence ratio was 1.08.
With GATGCAA the switch fluorescence ratio was 1.13.
With AGACCGGGTC the switch fluorescence ratio was 0.94.
ACATTTCGC was tested, and the switch fluorescence ratio was 1.02.
With ATGATTAAGC the switch fluorescence ratio was 0.99.
In the case of GAGCCACACT, the switch fluorescence ratio is reported as 1.06.
In the case of TTCTTGAATG, the switch fluorescence ratio is reported as 1.03.
TTAACGGAAA was tested, and the switch fluorescence ratio was 1.08.
Sequence CAACCATTAT has a switch fluorescence ratio of 1.01.
With TATGCCCGGT the switch fluorescence ratio was 1.15.
For AGCCAGTGAG, the switch fluorescence ratio was 1.04.
For GAAGTCACCT, the switch fluorescence ratio was 0.992.
Sequence ATGACCTGCT has a switch fluorescence ratio of 1.04.
GGTCGGCGGT gave a switch fluorescence ratio of 0.981.
ATGCCTTAG showed a switch fluorescence ratio of 0.986.
For AACGGGGCGG, the switch fluorescence ratio was 1.23.
GCCGGCCCTG was tested, and the switch fluorescence ratio was 0.958.
With GTGAGTGATG the switch fluorescence ratio was 1.01.
Work on GTACGTTCTA yielded a switch fluorescence ratio of 1.03.
CATAAGCTTG was tested, and the switch fluorescence ratio was 1.
For GAAGGGATCT, the switch fluorescence ratio was 1.01.
With TTTACCGCAG the switch fluorescence ratio was 1.31.
With TATTCGTCAC the switch fluorescence ratio was 0.995.
Sequence CCTTTTGGCA has a switch fluorescence ratio of 1.05.
TGCCCGTCCG showed a switch fluorescence ratio of 0.96.
Sequence CGAAATCCGT has a switch fluorescence ratio of 1.06.
Sequence GACTCCGCTT has a switch fluorescence ratio of 2.01.
In the case of AAACGTTGAT, the switch fluorescence ratio is reported as 0.982.
TGTTCCAAAG was tested, and the switch fluorescence ratio was 1.05.
With GAGTAAGGAG the switch fluorescence ratio was 0.98.
With TTAATAACGC the switch fluorescence ratio was 0.982.
Sequence CTCTAGCTAT has a switch fluorescence ratio of 2.41.
With AGTTTGACTT the switch fluorescence ratio was 1.01.
TCTAATGGAT was tested, and the switch fluorescence ratio was 0.99.
In the case of CGGTCCGAGG, the switch fluorescence ratio is reported as 1.04.
GCAGACGAG gave a switch fluorescence ratio of 1.05.
TTAAGGAGAG gave a switch fluorescence ratio of 0.993.
Sequence CTCTTTTCCC has a switch fluorescence ratio of 1.08.
For GACATTCCGC, the switch fluorescence ratio was 1.62.
Work on AGGAAACCGC yielded a switch fluorescence ratio of 1.06.
Work on AGATCGGATG yielded a switch fluorescence ratio of 1.01.
For TGTTACATAC, the switch fluorescence ratio was 1.49.
Sequence CGTGGTTACC has a switch fluorescence ratio of 0.997.
For CTCGCGATTG, the switch fluorescence ratio was 1.98.
